In publication PMC4336329 (PLoS ONE, 2015):
Out of some 310,000 compounds screened, about 2,200 (0.71%) showed an effect of 50% or more. Effects have a minus sign here. The list shows a part of the results.

The compounds below were run against human ether-à-go-go-related gene (hERG) potassium channel (human, UniProt Q12809) (assay: primary screen, population patch clamp on CHO cells stably expressing hERG).
Chain of human ether-à-go-go-related gene (hERG) potassium channel (Q12809 whole entry, looked up): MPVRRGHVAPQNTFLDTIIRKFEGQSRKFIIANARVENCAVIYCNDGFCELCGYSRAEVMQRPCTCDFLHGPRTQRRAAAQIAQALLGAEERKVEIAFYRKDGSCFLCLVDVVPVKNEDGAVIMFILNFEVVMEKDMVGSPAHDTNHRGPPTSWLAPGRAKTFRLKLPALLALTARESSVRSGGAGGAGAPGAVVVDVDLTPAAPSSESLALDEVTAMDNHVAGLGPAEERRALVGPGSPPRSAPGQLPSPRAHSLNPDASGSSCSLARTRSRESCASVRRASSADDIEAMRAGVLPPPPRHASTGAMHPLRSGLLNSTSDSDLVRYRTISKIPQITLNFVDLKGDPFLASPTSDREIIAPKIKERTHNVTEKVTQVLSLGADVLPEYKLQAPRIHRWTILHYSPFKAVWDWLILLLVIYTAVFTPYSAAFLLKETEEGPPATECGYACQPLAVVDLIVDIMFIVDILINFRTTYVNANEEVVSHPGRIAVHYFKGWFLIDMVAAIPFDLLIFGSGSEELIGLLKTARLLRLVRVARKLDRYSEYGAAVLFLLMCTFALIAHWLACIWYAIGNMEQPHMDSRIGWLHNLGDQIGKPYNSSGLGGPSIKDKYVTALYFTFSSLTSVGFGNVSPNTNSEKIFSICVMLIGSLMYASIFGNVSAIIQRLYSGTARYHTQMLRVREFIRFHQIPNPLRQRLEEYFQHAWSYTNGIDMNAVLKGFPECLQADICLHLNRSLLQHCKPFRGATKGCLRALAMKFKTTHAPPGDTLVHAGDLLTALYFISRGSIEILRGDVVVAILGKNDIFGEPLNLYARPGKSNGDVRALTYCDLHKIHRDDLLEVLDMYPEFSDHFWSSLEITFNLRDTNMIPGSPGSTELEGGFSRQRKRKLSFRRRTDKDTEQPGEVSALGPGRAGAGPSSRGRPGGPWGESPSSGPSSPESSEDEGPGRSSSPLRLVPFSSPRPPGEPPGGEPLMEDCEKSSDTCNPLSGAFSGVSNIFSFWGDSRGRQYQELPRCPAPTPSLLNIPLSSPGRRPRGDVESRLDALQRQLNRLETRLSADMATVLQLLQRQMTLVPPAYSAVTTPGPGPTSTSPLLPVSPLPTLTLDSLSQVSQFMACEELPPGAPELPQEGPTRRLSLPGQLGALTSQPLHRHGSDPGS

SMILES | hERG current change (%, negative = inhibition) at 1uM
O=C(NC(=S)Nc1ccccn1)c1ccco1 | 12%
COc1cccc(NC(=O)CN2CCN(CC(=O)Nc3ccc(F)cc3)CC2)c1 | -90.6%
CCCN(C(=S)Nc1ccccc1)C1CCS(=O)(=O)C1 (stereo not drawn) | 20.2%
COC(=O)C1=C(N)Oc2c(oc(CO)cc2=O)C1c1c(F)cccc1Cl (stereo not drawn) | 5.13%
CCOC(=O)CC(=O)Nc1cc(Cl)ccc1O | -0.29%
Cc1c(C)n(C(=O)CN2CCC(C)CC2)c2ccccc12 | 6.02%
COc1ccc(C(=O)NCC(=O)OCC(=O)N2N=C(c3ccc(Cl)cc3)CC2c2ccco2)cc1OC (stereo not drawn) | 14.1%
CCCCN(CCCC)CP(=O)(c1ccccc1)c1ccccc1 | 4.98%
O=C(CC(C(=O)O)c1ccc(Cl)cc1Cl)c1ccc(Cl)cc1 (stereo not drawn) | 12.3%
O=C(NCc1ccccn1)c1cccc(NS(=O)(=O)c2ccccc2)c1 | 15.7%
O=C(O)c1cc(/C=C/C(=O)c2cc(F)ccc2O)c2c(c1)COCO2 | 2.04%
CN(Cc1nc(-c2cccnc2)no1)S(=O)(=O)c1ccc2ccccc2c1 | -11.2%
CCc1nc(CNC(=O)c2cc(OC)c(OC)c(OC)c2)no1 | 9.7%
CC(=O)C1=NN(c2ccccc2)C2(S1)S/C(=C\c1ccccc1)C(=O)N2c1ccccc1 (stereo not drawn) | 16.8%
CC1CCc2sc(C(=O)NC3CCN(Cc4ccccc4)CC3)cc2C1 (stereo not drawn) | -3.62%
COc1ccc(C)cc1S(=O)(=O)N(C)CC(=O)N1CCC(C)CC1 | 13.9%
CCOC(=O)c1oc2nc3c(cc2c1N)COC(C)(C)C3 | 11.7%
Cc1cc(=O)oc2cc(OCC(=O)N3CC(C)OC(C)C3)ccc12 (stereo not drawn) | 9.82%
COc1ccc(NC(=O)CN(C)CC(=O)Nc2ccc3c(c2)CCC3)cc1 | 3.24%

SMILES | hERG current change (%, negative = inhibition) at 1uM
COc1ccc(NC(=O)CN(C)C(=O)c2cc(C)on2)cc1 | 8.15%
CCc1c(C(=O)N2CCCN(C)CC2)csc1C | 8.39%
Cc1ccc(OCC(O)CN2CC3(C)CC2CC(C)(C)C3)cc1.O=C(O)C(=O)O (stereo not drawn) | -18.6%
C=CCOc1ccc(C(=O)N(Cc2ccc(N(C)C)cc2)C2CCS(=O)(=O)C2)cc1 (stereo not drawn) | 2.15%
Cc1ccc(N2CC(C(=O)Nc3ccc(C)c(S(=O)(=O)N(C)C)c3)CC2=O)cc1 (stereo not drawn) | -3.07%
O=C(COc1ccc2ccc(=O)oc2c1)Nc1cccnc1 | 15%
Cn1nnnc1SCC1=C(C(=O)[O-])N2C(=O)[C@@H](NC(=O)[C@H](O)c3ccccc3)[C@H]2SC1.[Na+] | 13%
CCC(C)c1ccccc1NC(=O)CN(C)CCOc1ccc(Cl)cc1 (stereo not drawn) | 7.99%
O=C(Nc1ccccc1N1CCCC1)c1ccc(Cl)c(S(=O)(=O)N2CCOCC2)c1 | 7.53%
O=c1[nH]cnc2c1cnn2Cc1ccccc1 | 20.3%
COc1ccc([N+](=O)[O-])cc1NC(=O)CCN1CCN(C)CC1 | 16.9%
COC(=O)CC1NCCc2cc(OC)c(OC)cc21 (stereo not drawn) | 5.12%
COCCNC(=O)CCSCc1ccccc1F | -0.531%
Cc1cc(C)nc(NC(=O)c2ccc(COc3ccccc3Cl)cc2)c1 | 22.7%
COCCNC(=O)c1ccc2c(c1)NC(=O)CS2 | 11.2%
COc1cccc(NC(=O)Nc2cc(C)ccc2F)c1 | -8.17%
O=C(COc1ccccc1Cl)NNC(=O)c1cc(S(=O)(=O)N2CCOCC2)ccc1N1CCCC1 | 7.32%
COc1ccc(-c2coc3c(C)c4oc(=O)c(CCC(=O)O)c(C)c4cc23)cc1 | 6.19%
O=C(CSc1ccsc1[N+](=O)[O-])NCCc1ccc(Cl)cc1 | 19.4%

SMILES | hERG current change (%, negative = inhibition) at 1uM
COc1ccc(Cl)cc1NC(=O)CN(C)CC(=O)Nc1ccc(S(N)(=O)=O)cc1 | 14%
CN(C)C=NC1=NN(c2cccc(C(F)(F)F)c2)CC1 | 2.4%
O=C(CSc1cn(CCNC(=O)c2ccccc2)c2ccccc12)NCC1CCCO1 (stereo not drawn) | 6.2%
NS(=O)(=O)c1ccc(CNC(=O)CNC(=O)Cc2ccccc2)cc1 | 17.7%
CCOC(=O)NC(=O)CSc1nc(C)cc(C)c1C#N | 2.62%
CCOC(=O)CN(c1ccccn1)S(=O)(=O)c1ccc(OC)cc1 | 12.1%
CC(=O)N1CCCc2cc(S(=O)(=O)N3CCCC(C(=O)N4CCN(c5cccc(Cl)c5)CC4)C3)ccc21 (stereo not drawn) | 12.6%
Cc1cccc(NC(=O)c2ccc(S(=O)(=O)N3CCCC3)cc2)c1C | 12.4%
CC1(CC(=O)N/N=C/c2ccc(-c3ccc(Cl)cc3)o2)OCCO1 | 11%
O=C1CCc2cc(S(=O)(=O)NCc3ccccc3Cl)ccc2N1 | -4.94%
Cc1ccc(C(=O)n2c(-c3ccccc3)cnc2SCC(=O)Nc2ccc(C)cc2C)cc1 | 24.6%
O=[N+]([O-])c1cccc(/C=C/C=N/Nc2nc(N3CCCCC3)nc(N3CCCCC3)n2)c1 | 13.9%
CC(=O)c1c(O)cc(=O)oc1-c1ccc(C)cc1 | 13.5%
Cc1cc2nc(SCCOC(=O)Nc3cccc(Cl)c3)nc(C)c2cc1C | -0.799%
c1ccc(CCSc2nccn2-c2ccccc2)cc1 | 3.03%
CC(=O)Nc1ccc(OCC(O)Cn2cccn2)cc1 (stereo not drawn) | 14%
CCCNC(=O)c1oc2ccc3c(c2c1C)C=CC(C)(C)O3 | 12%
COc1ccc(C)cc1Nc1n[n+](C)c(-c2ccc(O)cc2O)s1.[Cl-] | 24.9%
CN(c1ccc(C(=O)NC2CCCCC2)cc1)S(=O)(=O)c1ccccc1 | 10.2%
